Experimental data: the supplement of paper PMC3334620
In all, about 33,000 sequences were measured (“E-score (-0.5 to 0.5)”: median about -0.056, highest 2% from about 0.38 on). This is one part of the list.

Each sequence was assayed against Stb4 (UniProt P50104) (assay: PBM E-score (8-mer binding enrichment) (E-score (-0.5 to 0.5)); higher = stronger / more preferred TF binding; most listed sequences are background and not binding sites). Settings: protein concentration: 200 nM; construct: GST-DNA-binding domain.
Protocol: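 Universal 'all 10-mer' protein binding microarrays (Agilent AMADID 015681) probed with GST-tagged S. cerevisiae TFs (full-length or DBD) made by in vitro transcription/translation (PURExpress), about 100-200 nM. Bound TF was detected with fluorescent anti-GST. Each ungapped 8-mer (which stands for itself and its reverse complement) is scored by the PBM enrichment score (E-score), a modified Wilcoxon-Mann-Whitney statistic from -0.5 to +0.5, computed with the Universal PBM Analysis Suite. Scale: above 0.35 generally sequence-specific binding.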

| Sequence | PBM E-score |
| --- | --- |
| ATCAGGAA | -0.127 |
| CTGTGACA | -0.19 |
| AACATCTG | -0.189 |
| AATCTTCT | 0.00884 |
| AGAATCCG | 0.27 |
| TCGGGAGA | 0.391 |
| ATGCCCCA | -0.164 |
| CGACTAGC | -0.0065 |
| AGACACGG | 0.218 |
| CTGTCTTA | -0.083 |
| CAAGGAGG | -0.21 |
| ACATTTTG | -0.215 |
| ACAGAAGA | -0.0571 |
| GTACGCTA | -0.0491 |
| CCACAAAG | -0.044 |
| CCGAATAA | 0.381 |
| ACCCACAT | -0.0222 |
| ACGGTGTG | -0.0716 |
| CAACAACC | 0.188 |
| CCTCTGAC | -0.145 |
| CTAAGTTA | -0.283 |
| AAGATCAT | -0.0799 |
| CGAGCCAC | 0.0242 |
| TCCTCAGA | -0.046 |
| CGCGCAAG | -0.0507 |

| Sequence | PBM E-score |
| --- | --- |
| GGCTCAAC | -0.0941 |
| TGTGCAAA | -0.317 |
| CATATCTA | -0.0538 |
| CCGAAATC | 0.405 |
| CGTCTTAC | -0.0366 |
| CCCTTACG | -0.16 |
| AGCGGGTA | 0.216 |
| CGTCTCCC | 0.071 |
| AACACGCA | -0.12 |
| AGTACAAT | -0.081 |
| GCATGCGC | -0.0497 |
| AGACTTGA | -0.0711 |
| TGTTGGAA | -0.201 |
| CATGCCCC | -0.00979 |
| AGCAGATC | -0.29 |
| ATATTTGC | -0.0351 |
| ATCGCAGG | -0.279 |
| GAGCGTGC | 0.123 |
| AGACGCAA | -0.0774 |
| AAATAACG | -0.0138 |
| GCAGAGGC | -0.0743 |
| CGGGCGAG | 0.184 |
| ATCGCCTG | -0.1 |
| GGGCAGAA | 0.0693 |
| GGATTCTA | 0.0237 |

| Sequence | PBM E-score |
| --- | --- |
| ATTGAGAC | -0.0589 |
| CACTTTAG | -0.0412 |
| GGATGTAA | 0.245 |
| ATCTGTTC | 0.081 |
| CTCGTAGC | -0.133 |
| AGCGAGGA | -0.0315 |
| CCGGGCGC | 0.22 |
| CATGAAAG | -0.00301 |
| CATACGGA | 0.288 |
| AGGGCAAA | 0.0511 |
| ATGTGTTC | 0.059 |
| GCGCAAAC | -0.0362 |
| GCTGCAAC | -0.0315 |
| GCCAGCAC | -0.106 |
| GTTAGGAA | -0.068 |
| TCCGGAAA | 0.439 |
| TCGACGAA | -0.075 |
| CGCACCCG | 0.339 |
| CACATGAG | -0.349 |
| ATGCCCGC | 0.175 |
| TAGACGCA | -0.251 |
| ACTTAAAC | -0.0926 |
| CAACTACC | 0.0365 |
| CGAGCGCA | 0.205 |
| AAATATAA | 0.0326 |

| Sequence | PBM E-score |
| --- | --- |
| CCACGAGG | -0.0952 |
| CTGTCCAC | -0.0305 |
| ACTACAGC | -0.0939 |
| CCGGGCGA | 0.183 |
| GCATAATA | 0.00318 |
| AGGACGGA | 0.256 |
| AAGCAGGG | -0.0512 |
| AAACCGAG | 0.332 |
| ATGACACG | 0.155 |
| AGCGTCGC | -0.13 |
| ACAATTTG | -0.222 |
| AAACTGTA | -0.176 |
| GGTGGGGA | 0.0872 |
| CACTAAAC | -0.0976 |
| AAACGGCG | -0.0798 |
| AGTGTAAT | -0.0675 |
| CCCCTACC | -0.0793 |
| ACAAAAAG | 0.0516 |
| ATGCTGAC | -0.113 |
| GAAGTAGA | -0.0217 |
| ACAAGCAT | -0.0413 |
| AGCCACAG | -0.133 |
| TCACTGCA | -0.132 |
| TAAACGGA | 0.208 |
| CGATGCTC | 0.152 |

| Sequence | PBM E-score |
| --- | --- |
| CTTACTGA | -0.158 |
| CGTTATGC | -0.258 |
| ACTTTGTA | -0.0912 |
| CGGCCTAC | 0.0488 |
| ATCTACAC | -0.127 |
| CCCGATAG | 0.223 |
| CAATTCCA | -0.0908 |
| CGGCTCGC | 0.236 |
| CATTGAAG | -0.222 |
| TTAGCGAA | -0.0888 |
| CAGCAAAC | -0.0207 |
| GATATGTA | -0.0273 |
| CCCTACTA | -0.0809 |
| CGATACGA | -0.0283 |
| ACTTTTAT | -0.0929 |
| ATCATTTG | -0.0566 |
| GGGTAATA | 0.246 |
| TGGGTACA | 0.0508 |
| TAGCGTGA | -0.23 |
| AATAAGAT | -0.15 |
| AAATTACT | -0.0027 |
| CTGAATTA | -0.0801 |
| CTGCTAGC | -0.23 |
| AGCGCAAT | -0.0399 |
| AACTCTGA | 0.11 |

| Sequence | PBM E-score |
| --- | --- |
| AGATCTTG | -0.197 |
| ACTAGGAC | -0.0716 |
| GAAAGTGA | -0.0866 |
| AACCAGAA | -0.0712 |
| CCGACCAC | 0.283 |
| CAGAAAGC | -0.131 |
| GGTTTAAA | -0.0459 |
| ACGTCGAA | -0.143 |
| AAGTCCGT | 0.187 |
| GTGCACAA | 0.0485 |
| AGTACCGC | 0.0715 |
| ATGGTCGG | 0.291 |
| ATTGTCTG | -0.0452 |
| CTGCACTA | -0.0514 |
| AGGCATAA | -0.134 |
| CAATATAG | -0.0585 |
| TCAAGTGA | -0.245 |
| CTACGGGC | -0.0551 |
| CAATGCGC | -0.0287 |
| TGGGAAAA | -0.158 |
| TCTCAGAA | -0.227 |
| AATATTGA | -0.0636 |
| AAGCATTA | -0.0324 |
| CTGGGGAA | -0.341 |
| AGAACCTC | -0.0283 |

| Sequence | PBM E-score |
| --- | --- |
| TAATTGTA | 0.126 |
| CCGTAGCG | 0.155 |
| ATCATCAC | -0.266 |
| ACACCGTA | -0.0233 |
| ACTTCGCA | -0.156 |
| CAGGTAGC | -0.0418 |
| CCTCATCC | -0.036 |
| GAATTCGC | 0.114 |
| ATGCTCCA | -0.06 |
| CGACGCCG | 0.255 |
| AAAAGAGG | -0.165 |
| CAATCTCG | 0.165 |
| GACGTATC | -0.0654 |
| AAGGACGA | -0.165 |
| AGGTATAC | -0.111 |
| ACCGGGCC | 0.214 |
| ACCGACAC | 0.258 |
| GCTTTGAC | 0.139 |
| TAGTAGGA | -0.0566 |
| TCCAACAA | -0.219 |
| ACTAACAA | -0.174 |
| GACGTGCA | -0.075 |
